Source: publication PMC4336329 (PLoS ONE, 2015)
Screen size: about 310,000 compounds; about 14,000 (4.5%) showed an effect of 50% or more. The effect is printed as a negative number. Some of the results follow.

target: human ether-à-go-go-related gene (hERG) potassium channel (human, UniProt Q12809); assay: primary screen, population patch clamp on CHO cells stably expressing hERG
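Note: peak tail current of the secondary pulse compared with the same well before compound.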

Sequence of human ether-à-go-go-related gene (hERG) potassium channel (Q12809 whole entry, looked up): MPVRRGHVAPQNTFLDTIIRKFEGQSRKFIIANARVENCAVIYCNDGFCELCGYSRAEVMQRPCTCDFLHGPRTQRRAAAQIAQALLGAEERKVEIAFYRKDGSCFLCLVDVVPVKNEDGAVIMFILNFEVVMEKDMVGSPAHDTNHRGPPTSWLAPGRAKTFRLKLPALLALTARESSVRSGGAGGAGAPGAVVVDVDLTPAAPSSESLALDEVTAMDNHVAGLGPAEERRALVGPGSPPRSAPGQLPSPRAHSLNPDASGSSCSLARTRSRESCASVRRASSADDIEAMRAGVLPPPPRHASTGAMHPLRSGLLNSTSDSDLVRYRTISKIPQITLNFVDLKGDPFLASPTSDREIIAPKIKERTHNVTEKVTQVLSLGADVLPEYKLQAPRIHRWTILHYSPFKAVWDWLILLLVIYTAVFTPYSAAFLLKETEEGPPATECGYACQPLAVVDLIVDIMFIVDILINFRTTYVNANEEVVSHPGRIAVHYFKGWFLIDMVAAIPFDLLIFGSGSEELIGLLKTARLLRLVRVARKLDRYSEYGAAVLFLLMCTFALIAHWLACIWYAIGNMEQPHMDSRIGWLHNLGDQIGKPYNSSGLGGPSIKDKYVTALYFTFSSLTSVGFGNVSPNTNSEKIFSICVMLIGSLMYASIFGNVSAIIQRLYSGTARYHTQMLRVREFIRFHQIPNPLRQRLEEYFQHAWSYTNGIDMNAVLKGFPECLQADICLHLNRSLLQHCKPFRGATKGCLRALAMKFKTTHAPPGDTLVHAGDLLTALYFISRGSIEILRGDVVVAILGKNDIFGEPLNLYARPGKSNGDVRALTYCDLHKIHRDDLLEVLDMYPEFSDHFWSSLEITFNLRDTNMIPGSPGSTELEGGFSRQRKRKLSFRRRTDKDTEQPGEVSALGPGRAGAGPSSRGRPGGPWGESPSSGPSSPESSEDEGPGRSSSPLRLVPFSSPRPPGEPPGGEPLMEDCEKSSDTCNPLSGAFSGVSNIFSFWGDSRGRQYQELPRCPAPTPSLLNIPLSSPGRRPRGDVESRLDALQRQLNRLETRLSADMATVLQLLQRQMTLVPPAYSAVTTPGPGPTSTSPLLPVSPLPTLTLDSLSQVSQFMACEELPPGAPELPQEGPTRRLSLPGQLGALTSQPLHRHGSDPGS

Structure (SMILES) | hERG current change (%, negative = inhibition) at 10uM [%]
O=C(COc1cccc(C(F)(F)F)c1)N1CCN(c2ccc(O)cc2)CC1 | -36.2
CCN(CC(=O)Nc1ccc(NC(C)=O)cc1)C(=O)c1n[nH]c(=O)c2ccccc12 | -15.5
Cc1ccc(S(=O)(=O)N(C)C)cc1NC(=O)CCNC(=O)c1ccccc1Cl | 8.56
CCCCn1c(N)c(N(CC(C)C)C(=O)c2oc3ccc(OC)cc3c2C)c(=O)[nH]c1=O | 14.6
CC1CC(C)CN(C(=O)c2ccc3c(c2)OCCO3)C1 (stereo not shown) | -6.59
Cc1ccc(NC2=CC(=O)CC(C)(C)C2)c(N)c1 | -7.92
CCOc1ccc(-n2c(N)c(C(=O)NCC3CCCO3)sc2=S)cc1 (stereo not shown) | -2.34
Cc1ccc(NC(=O)Cn2nnc(C(=O)NCCc3ccccc3)c2N)c(C)c1 | 13
COc1ccc(NC(C)=O)cc1S(=O)(=O)Nc1cccc(S(=O)(=O)NC2=NCCC2)c1 | 9.52
Cc1ccc2c(c1)c1c3n2CCCNC3CCC1 (stereo not shown) | -49.4
COc1ccc(NC(=O)CN(C)S(=O)(=O)c2ccc(Br)s2)cc1 | 9.34
CCCCCCCNC(=O)COc1ccc2c(c1)C(=O)CC(C)(C)O2 | -14.4
CC(CN(C)Cc1ccccc1)OC(=O)c1ccc(F)cc1.Cl (stereo not shown) | -9.59
COC(=O)c1ccc(COc2ccc(-c3nnn(CC(N)=O)n3)cc2)cc1 | 11.3
COCCN1C(=O)C(CC(=O)Nc2ccc(C(C)=O)cc2)SC1=Nc1ccccc1 (stereo not shown) | -3.86
COc1cc(-c2c(C#N)c(=O)[nH]c3c2c(C)nn3-c2ccccc2)ccc1O | 16.3
CCOc1cccc(NC(=O)Cn2nc(-c3ccc4c(c3)OCCO4)ccc2=O)c1 | 10.9
COc1ccc(C(=O)NCC(=O)N/N=C/c2ccc([N+](=O)[O-])s2)cc1OC | -31.5
Cc1cccc(-n2ncc3c(N4CCCC4)ncnc32)c1 | 13
O=C(Cc1ccccc1)N1CCN(CC2CC3C=CC2C3)CC1.O=C(O)C(=O)O (stereo not shown) | -5.73
Cc1cc(/C=N/NC(=O)CC2(C)OCCO2)c(C)n1-c1ccc(Cl)c(Cl)c1 | 3.62
COc1ccc(S(=O)(=O)N2CC(C)N(C(=O)N(C)C)C2C)cc1 (stereo not shown) | 12.8

Structure (SMILES) | hERG current change (%, negative = inhibition) at 10uM [%]
CC(C)[C@H](CO)Nc1nc(NCc2ccc(S(N)(=O)=O)cc2)c2ncn(C(C)C)c2n1 | 5.05
O=C(c1cccc(C(F)(F)F)c1)C1CCCN(Cc2ccc(OCCO)cc2)C1 (stereo not shown) | -69.8
CCOc1ccc(CCNC(=O)C2CC=CCC2C(=O)OC(C)C)cc1OCC (stereo not shown) | 27.8
O=C(Nc1cccc(F)c1)Nc1ccc2c(c1)OCO2 | 19.2
Cc1cccc(OCC(=O)NNC(=O)Cn2c(=O)cnc3ccccc32)c1 | 3.65
Cl.c1ccc(SCCCCN2CCOCC2)cc1 | 5.1
Cc1ccc(S(=O)(=O)N2CCN(c3ccnc4cc(Cl)ccc34)CC2)cc1C | 30.7
Cc1ccc(-n2ncc3c2ncn2nc(-c4ccco4)nc32)c(C)c1 | 6.33
Cc1cc(C)c2c(CN3CCC(C)CC3)cc(=O)oc2c1C | 13
COc1ccc(/C=N/NC(=O)c2cc(C)n(-c3ccccc3)c2C)cc1OC | -53.2
CC(C)CCn1c(SCc2ccc(Cl)cc2)nc2c1c(=O)[nH]c(=O)n2C | 3.75
CC1=C(C(=O)Nc2ccc(F)cc2)C(c2ccncc2)C2=C(CCCC2=O)N1 (stereo not shown) | -20.1
CSC1CCCCC1(O)CSc1nc2c(cc1C#N)CCCC2 (stereo not shown) | 1.25
CCCCC(=O)Nc1cc(C)c(NC(=O)c2ccco2)cn1 | 11.2
Cc1ccc(-n2cc(CNCCN3CCOC3=O)c(-c3cccc(C)c3)n2)cc1 | -69.1
CN(C)C(CNC(C(=O)Nc1ccc(F)cc1)c1ccccc1)c1ccccc1 (stereo not shown) | -70.6
CCn1c(/C=C/Nc2ccccc2)[n+](CC)c2ccc(Cl)cc21.[I-] | -78.6
CCOC(=O)C(=CNc1nc(-c2ccccc2)c(C(=O)Nc2ccc(-c3ccccc3)cc2)s1)C(=O)OCC | 4.56
Cc1cccc(NC(=S)N(CCN(C)C)Cc2cc3cc(C)ccc3[nH]c2=O)c1 | -16.5
COc1ccc(CCNC(=O)CN(Cc2ccc(Cl)cc2)S(C)(=O)=O)cc1OC | -3.36
COc1ccc(OCCC(=O)OCC(=O)NC(=O)NC2CCCCC2)cc1 | 13.2
CN(C)c1ccnc2sc3c(NCC(O)CO)ncnc3c12 (stereo not shown) | 5.66

Structure (SMILES) | hERG current change (%, negative = inhibition) at 10uM [%]
O=S(=O)([O-])CCS.[Na+] | 17.5
CSCC[C@H](NC(=O)c1ccc(Cl)c([N+](=O)[O-])c1)c1nc2ccccc2[nH]1 | -20.2
COc1ccc(C(C)=O)cc1COC(=O)c1c(C)noc1C | -7.22
CCOC(=O)N1CCN(C(=O)/C(=C/c2cccc3ccccc23)NC(=O)c2ccc(OC)c(OC)c2)CC1 | -3.14
O=C1C2C3C=CC(C3)C2C(=O)N1CCN1CCN(S(=O)(=O)c2ccc3ccccc3c2)CC1 (stereo not shown) | -2.23
O=C(Nc1ccccc1)c1ccccc1CCc1ccccc1 | 11.8
COc1ccc(N(C)C(=O)c2cc3c(s2)-c2ccccc2S(=O)(=O)C3)cc1 | -39.9
CN(c1ccccc1)S(=O)(=O)c1cccc(NS(=O)(=O)c2ccc(/C=C/C(=O)O)cc2)c1 | 5.18
O=c1oc2ccccc2c(NC2CCCCC2)c1NS(=O)(=O)c1ccc(Br)cc1 | -18.7
CCNc1nc(Oc2ccc(C#N)cc2)cc(C(F)(F)F)n1 | 4.41
CCN1CCN(CCNC(=O)Cn2c(=O)c3cccn3c3ccc(F)cc32)CC1 | -2.61
CC1CCc2cc(F)cc3c(=O)c(C(=O)O)cn1c23 (stereo not shown) | 13
COc1ccc(C2CC(=O)n3nc(C45CC6CC(CC(C6)C4)C5)nc3S2)cc1OC (stereo not shown) | 26.1
Cc1cc(C)cc(C(=O)NC(CC(N)=O)c2ccc(N3CCC(Cc4ccccc4)CC3)c([N+](=O)[O-])c2)c1 (stereo not shown) | 8.2
COC(=O)C1=C(C)NC(=O)/C1=C\N(C)C | 18
COc1ccc(C(=O)NCc2nnc(SCC(=O)NC3CCCCC3)o2)cc1 | 17.2
CC1(C)CC(n2[nH]c(=O)c3c2NC(=O)CSC3c2ccccc2)CCO1 (stereo not shown) | 11.6
N#Cc1nc(-c2ccco2)oc1N1CCC(Cc2ccccc2)CC1 | 0.874
Cc1ccccc1C(=O)N/N=C/c1ccc(OCC(=O)N2CCCCC2)cc1 | 4.38
Cn1c(=O)n(Cc2ccc(Cl)cc2)c(=O)c2c1nc1n2CCN1Cc1ccco1 | -21.5
CNC(=O)c1[nH]cnc1C(=O)Nc1ccc(C)cc1 | 10.9
Cc1nn(C)c(C(=O)N/N=C/c2cc3c(cc2Br)OCO3)c1Br | 11.2

Structure (SMILES) | hERG current change (%, negative = inhibition) at 10uM [%]
CC1=C(C(=O)OCC2CCCO2)C(c2ccccc2Cl)NC(=O)N1 (stereo not shown) | 14.1
Cc1ccc2c(c1)C1(SCCS1)C(=O)N2 | 13.2
COCCn1c(SC(C)C(=O)NC2CC2)nnc1-c1cccc(C)c1 (stereo not shown) | 6.4
O=C(Nc1ccc(N2CCCCC2)c(Cl)c1)c1ccc2c(c1)OCCO2 | -1.06
O=C(CNC(=O)c1ccco1)OCc1ccc(C(=O)c2ccccc2)cc1 | -69.2
CC(CCCC(C)(C)O)NC(=O)c1ccc2oc(CCc3ccccc3)nc2c1 (stereo not shown) | 12.4
Cc1nn(-c2ccccc2)c2nc3c(cc12)C(=O)CCC3 | -7.63
Cc1ccccc1C(=O)c1cccn1CC(=O)NCc1cccc(Cl)c1 | 20.2
O=C(COC(=O)C1CC1)Nc1ccc([N+](=O)[O-])cc1C(F)(F)F | -7.44
C=CCNCc1cccn1-c1ccccc1.O=C(O)C(=O)O | 8.54
O=C(CCS(=O)(=O)c1cc(Br)cc2c1N(C(=O)C1CC1)CC2)NCC1CCCO1 (stereo not shown) | 10.8
COc1cc(/C=C2\C(=N)N3N=C(S(C)(=O)=O)SC3=NC2=O)ccc1OS(=O)(=O)c1ccccc1 | 24.3
CN(C)CCn1cnc2c(c1=N)C(c1ccccc1)c1ccc3ccccc3c1O2 (stereo not shown) | -79.2
O=S(=O)(c1ccc2c(c1)OCCO2)N1CCC(c2nc3ccc(Cl)cc3[nH]2)CC1 | -56.6
Cc1ccc(S(=O)(=O)N2CCN(Cc3cccc(F)c3)CC2)cc1 | -9.78
CCCCCC(=O)Cc1cc(O)cc2c1C(=O)Oc1cc(O)c(C(=O)O)c(CCCCC)c1O2 | 8.9
Cc1nc(C(F)(F)F)ccc1C(=O)Nc1ccccc1N1CCOCC1 | 12.2
Cc1cc2ccccn2c1C(=O)c1cc([N+](=O)[O-])cc([N+](=O)[O-])c1 | 12.1
COCCN(C(=O)CC1C(=O)NCCN1Cc1ccc(-c2ccccc2)cc1)C(C)C (stereo not shown) | 1
